Here are results for 51 compounds from PubChem BioAssay AID1346428 (National Center for Advancing Translational Sciences (NCATS), 2018).

The whole screen tested about 48,000 compounds, of which about 1,200 (2.5%) were called active. Inconclusive results (about 2%) are left out.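 How the source made its calls: active means activation of at least 60% and not above a set upper limit (about 1 call in 100 departs from these limits); inconclusive means activation of 40% to 60%, or above that upper limit; inactive means activation under 40%.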 This is one part of the list.

This experiment addresses Probable G-protein coupled receptor 32 (Homo sapiens) (UniProt O75388). The experiment in a line: qHTS for Agonists of Human Resolvin D1 Receptor DRV1. Further: 0% is about no effect. The conditions noted are these: CHO-K1 GPR32 beta-arrestin PathHunter luminescence, 90 min; at 76.9 µM; active compounds read high; zero percent set by DMSO-only wells. The method, boiled down: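 Agonism was scored by beta-Gal fragment complementation (chemiluminescent read, 1 h detection at ambient temperature) reporting beta-arrestin binding to GPR32 in engineered CHO-K1 cells. Compound treatment lasted 90 min at 37 C, normalized to a DMSO basal control.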
Chain of UniProt O75388 (O75388 whole entry, looked up, the tested form may be a part): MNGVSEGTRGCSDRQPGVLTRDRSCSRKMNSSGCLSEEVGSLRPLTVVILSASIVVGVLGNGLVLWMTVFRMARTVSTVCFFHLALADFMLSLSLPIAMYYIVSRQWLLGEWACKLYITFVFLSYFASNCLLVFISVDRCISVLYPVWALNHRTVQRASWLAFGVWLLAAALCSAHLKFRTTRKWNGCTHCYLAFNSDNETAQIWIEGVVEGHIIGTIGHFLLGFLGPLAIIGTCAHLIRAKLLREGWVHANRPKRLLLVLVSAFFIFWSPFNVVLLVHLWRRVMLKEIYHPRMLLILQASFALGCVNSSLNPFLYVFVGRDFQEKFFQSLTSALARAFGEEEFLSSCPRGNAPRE
In general terms: In qHTS, concentration-response curves come from the screen itself.
As to `CCOc1ccc(C(c2c(O)cc(C)n(CCOC)c2=O)N2CCN(c3ccc(F)cc3)CC2)cc1` (stereo unspecified), the activation was inactive: -8.91%. Take `CCOc1ccc(-n2c(=O)c3c(C)c(C)sc3n(Cc3ccc(C(C)(C)C)cc3)c2=O)cc1`: the activation was inactive: -4.51%. As to `CC(=O)N1CCc2c(sc3c2c(=O)n(-c2cc(Cl)ccc2C)c(=O)n3C)C1`, the activation was inactive: -8.07%. The same measure for `CCN(CC)C(=O)Cn1c(=O)n(CCCCCC(=O)NCc2ccc(C)cc2)c(=O)c2sccc21`: inactive: -8.16%; for `CCCCNC(=O)Cn1nc(N2CCN(c3ccccc3OC)CC2)ccc1=O`: inactive: -15.7%; for `CCCCCN=C(N)N/N=C/c1c[nH]c2ccc(OC)cc12`: active: 73.5%. Regarding `COc1cccc(C(=O)N2CCc3cc(OC)c(OC)cc3C2COc2ccc3c(C)cc(=O)oc3c2)c1` (stereo unspecified), the activation was inactive: -7.16%.

Turning to `CCn1cc(S(=O)(=O)c2cc(C)cc(C)c2)c(=O)c2cc(F)c(N3CCN(c4ccccc4)CC3)cc21`, the activation is inactive: -11.2%. As for `Cc1ccc(Cl)cc1N1CCN(C(=O)COc2cc(=O)n(C)c3ccccc23)CC1`, the activation was inactive: -2.54%.

Turning to `COc1cc2c(cc1OC)C(COc1ccccc1OC)N(C(=O)c1ccc(S(=O)(=O)N(C)C)cc1)CC2` (stereo unspecified), the activation was inactive: -13%. Take `CC(=O)N1CCc2c(sc3c2c(=O)n(Cc2ccccc2)c(=O)n3Cc2ccccc2Cl)C1`: the activation is inactive: -49.6%. For the compound `Cc1ccc(/C=C/c2onc(C)c2S(=O)(=O)N2CCC(C(=O)N3CCN(c4cc(C)ccc4C)CC3)CC2)cc1`, the activation was inactive: -0.979%. For `COc1ccc(Nc2nc3c(S(=O)(=O)c4ccc(C)cc4)nnn3c3ccsc23)cc1Cl`, the activation was inactive: -7.7%. Turning to `CC1CN(C(=O)N2CCC(C(=O)NCc3cccs3)CC2)c2ccccc2O1` (stereo unspecified), the activation was inactive: 3.12%. The same measure for `CCC1CCCCN1CCCNC(=O)c1c(O)nc2cc(C)ccn2c1=O` (stereo unspecified): inactive: -21.4%; for `COC(=O)c1cc2sc(Cl)cc2n1Cc1nc(-c2ccccc2C)oc1C`: inactive: -9.19%. For `COc1cc(-c2nc(-c3ccccc3)c(-c3ccc(Br)cc3)[nH]2)cc(OC)c1O`, the activation is inactive: -3.42%. With `CCCCN(CC)C(=O)CSc1nc2ccccc2c(=O)n1Cc1ccco1`, the activation is inactive: -1.65%. With `COc1cccc(CNC(=O)Cn2c(=O)nc(-c3ccccc3F)c3cc(Cl)ccc32)c1`, the activation is inactive: -8.41%. On to `CC1CCN(S(=O)(=O)c2ccc3c(c2)N(CC(=O)NC(C)(C)C)C(=O)CS3)CC1`, for which the activation is inactive: -9.74%. The same measure for `COc1ccc(Nc2oc(/C=C/c3cc(OC)c(OC)c(OC)c3)nc2C#N)cc1`: inactive: 4.56%; for `CCOC(=O)c1ccccc1NC(=O)CSc1cn(CC(=O)N2CCCCCC2)c2ccccc12`: inactive: -25.6%; for `COc1ccc(S(=O)(=O)N(CC(=O)NCCc2ccccc2)c2ccc(Cl)cc2)cc1`: inactive: 8.52%. `COc1ccccc1C(=O)Nc1ccc(S(=O)(=O)Nc2nc(C)cc(C)n2)cc1`: the activation is inactive: -2.82%. With `Cc1oc2ncnc(N3CCCCC3)c2c1C(=O)N1CCN(c2ccc(Cl)cc2)CC1`, the activation was inactive: 2.66%. On to `CCOc1ccc(C(=O)c2oc3ccccc3c2NC(=O)c2cc(=O)c3ccc(C)cc3o2)cc1`, for which the activation is inactive: 3.12%. Take `COc1ccc(NC(=O)c2ccco2)cc1NC(=O)c1cc(Br)ccc1Cl`: the activation is inactive: 0.387%. Turning to `COc1ccc(-c2nc3c4ccccc4n(CC(=O)N4CCN(c5ccccc5F)CC4)c(=O)n3n2)cc1`, the activation is inactive: -7.62%. For `CCc1ccc(NC(=O)CCCc2nnc3n(C(C)CC)c(=O)c4sccc4n23)cc1` (stereo unspecified) the value was inactive: -15.2%; for `Cc1ccc(NC(=O)CSc2nnc(NC(=O)NC3CCCCC3)s2)cc1`, inactive: 10.5%; for `CCCCN(CC)CCNC(=O)c1nn(C)c2c1CS(=O)(=O)c1ccccc1-2`, inactive: -4.07%. `CCOC(=O)c1scc(-c2ccc(C)cc2)c1S(=O)(=O)N1CCN(c2ccccc2)CC1`: the activation is inactive: -11.1%. For `Cc1cc(C)cc(NC(=O)C2CCN(c3nnc(-n4c(C)ccc4C)s3)CC2)c1`, the activation was inactive: -20.1%. As for `COc1ccc(-c2noc(COc3ccc(C)cc3C)n2)cc1OC`, the activation was inactive: -22.9%.

Take `CCc1cccc(NC(=O)CN(C)S(=O)(=O)c2ccc3c(c2)n(C)c(=O)c(=O)n3C)c1`: the activation was inactive: -24.2%. The same measure for `CCOc1cc(C(=O)Nc2ccc3nc(N4CCN(C)CC4)cc(C)c3c2)cc(OCC)c1OCC`: inactive: -8.25%; for `CC(=O)c1ccc(NS(=O)(=O)c2ccc3[nH]c(=O)[nH]c3c2)cc1`: inactive: 8.79%. For `COc1ccc(S(=O)(=O)N(CC(=O)Nc2ccc(C)cc2)c2ccc(C)cc2)cc1OC` the value was inactive: -5.4%.

As to `COc1ccc(-n2c(SCC(=O)Nc3ccc4c(c3)OCO4)nc3c([nH]c4ccccc43)c2=O)cc1`, the activation is inactive: -9.2%. `COc1cccc(CNC(=O)C2=C(C)C(=O)OC23CCCCCC3)c1`: the activation is inactive: -20.3%.

On to `Cc1cccc(N2CCN(C(=O)CCNS(=O)(=O)c3ccc4c(c3)CCN4C(=O)C3CC3)CC2)c1C`, for which the activation is inactive: 43.7%. The same measure for `COc1ccc2nc(NC(=O)c3nc(S(=O)(=O)Cc4ccc(C)cc4)ncc3Cl)sc2c1`: inactive: 0.105%.

For the compound `COc1ccc(Nc2cc(C)c3cc(NC(=O)COc4cccc(C)c4)ccc3n2)cc1`, the activation is active: 72.4%. Consider `O=C(CN1C(=O)c2ccccc2Sc2ncccc21)Nc1cccc(C(F)(F)F)c1`, for which the activation was inactive: 17%.

In the case of `COc1ccc(Cl)cc1NC(=O)c1noc2c1CCc1ccccc1-2`, the activation was inactive: 1.68%. The same measure for `Cc1cc(C)c(Cn2cnc3nc4c(cc3c2=O)CCCC4)c(C)c1`: inactive: -18.4%; for `CCOc1ccccc1NC(=O)CN(c1cc(C)cc(C)c1)S(=O)(=O)c1c(C)nn(C)c1C`: inactive: -13%; for `CCc1cc(=O)oc2c(C)c(OCC(=O)Nc3ccc(S(=O)(=O)N(CC)CC)cc3)ccc12`: inactive: -7.07%. Turning to `CCOc1ccc2nc(Cl)c(C3CC(c4ccccc4)=NN3C(=O)CCC(=O)O)cc2c1` (stereo unspecified), the activation is inactive: -2.64%.

As to `CCOc1ccc(NC(=O)N2CCC(n3c(C)nc4cccnc43)CC2)cc1`, the activation is inactive: -7.5%. As to `CCOc1ccc(C(=O)NCC(c2ccc3c(c2)OCO3)N2CCN(C)CC2)cc1` (stereo unspecified), the activation was inactive: 1.3%.
